Reference: the supplement of paper PMC11741623
This is one part of the list. Interaction screen of human proteins with wild-type SARS-CoV-2 proteins by split-DHFR complementation in yeast, 1 µg/mL methotrexate. Value = fitness of the pair (three or more lineages) minus that of the viral protein without a human partner, on a scale set by negative (0) and fused positive (1) controls, mean of up to three cultures; higher = more likely to interact. Active = false discovery rate below 0.05 (one-sided t-test) in at least one culture. Nearly all pairs are not hits, and differences among them are mostly noise (correlation between cultures about 0.3); most hits were seen in one culture only. Human sequences are the Swiss-Prot entries looked up by gene name; the clone may be another isoform. NSP2 values were corrected by the authors for a growth advantage. Listed are human proteins with a hit and a random twelfth of the others.

Key:
Test in all cases: yeast fitness gain over the viral ORF with no human partner (scaled fitness); higher = more likely to interact
SARS-CoV-2 E = target: SARS-CoV-2 E
Experimental: (§1)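 Split mouse DHFR complementation in pooled diploid yeast: human ORFeome clones carry one fragment and viral ORFs the other; barcoded lineages compete in 1 µg/mL methotrexate and fitness is read by barcode sequencing in up to three cultures.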

SARS-CoV-2 M = target: SARS-CoV-2 M
Experimental: as §1

SARS-CoV-2 NSP10 = target: SARS-CoV-2 NSP10
Experimental: as §1

SARS-CoV-2 NSP12 = target: SARS-CoV-2 NSP12
Experimental: as §1

SARS-CoV-2 NSP13 = target: SARS-CoV-2 NSP13
Experimental: as §1

SARS-CoV-2 NSP16 = target: SARS-CoV-2 NSP16
Experimental: as §1

SARS-CoV-2 NSP2 = target: SARS-CoV-2 NSP2
Experimental: as §1

SARS-CoV-2 NSP5 = target: SARS-CoV-2 NSP5
Experimental: as §1

SARS-CoV-2 NSP6 = target: SARS-CoV-2 NSP6
Experimental: as §1

SARS-CoV-2 NSP8 = target: SARS-CoV-2 NSP8
Experimental: as §1

SARS-CoV-2 ORF10 = target: SARS-CoV-2 ORF10
Experimental: as §1

SARS-CoV-2 ORF3B = target: SARS-CoV-2 ORF3B
Experimental: as §1

SARS-CoV-2 ORF6 = target: SARS-CoV-2 ORF6
Experimental: as §1

SARS-CoV-2 ORF7A = target: SARS-CoV-2 ORF7A
Experimental: as §1

SARS-CoV-2 ORF7B = target: SARS-CoV-2 ORF7B
Experimental: as §1

SARS-CoV-2 ORF8 = target: SARS-CoV-2 ORF8
Experimental: as §1

SARS-CoV-2 ORF9B = target: SARS-CoV-2 ORF9B
Experimental: as §1

[1] = target: SARS-CoV-2 ORF9Bwu (the 73-codon ORF)
Experimental: as §1

SARS-CoV-2 S = target: SARS-CoV-2 S
Experimental: as §1

SARS-CoV-2 N = target: SARS-CoV-2 N
Experimental: as §1

SARS-CoV-2 NSP1 = target: SARS-CoV-2 NSP1
Experimental: as §1

SARS-CoV-2 NSP14 = target: SARS-CoV-2 NSP14
Experimental: as §1

SARS-CoV-2 NSP15 = target: SARS-CoV-2 NSP15
Experimental: as §1

SARS-CoV-2 NSP4 = target: SARS-CoV-2 NSP4
Experimental: as §1

SARS-CoV-2 NSP7 = target: SARS-CoV-2 NSP7
Experimental: as §1

SARS-CoV-2 NSP9 = target: SARS-CoV-2 NSP9
Experimental: as §1

SARS-CoV-2 ORF3A = target: SARS-CoV-2 ORF3A
Experimental: as §1

Measured: yeast fitness gain

B1: LYPLAL1, Q5VWZ2 (protein)
chain: MAAASGSVLQRCIVSPAGRHSASLIFLHGSGDSGQGLRMWIKQVLNQDLTFQHIKIIYPTAPPRSYTPMKGGISNVWFDRFKITNDCPEHLESIDVMCQVLTDLIDEEVKSGIKKNRILIGGFSMGGCMAIHLAYRNHQDVAGVFALSSFLNKASAVYQALQKSNGVLPELFQCHGTADELVLHSWAEETNSMLKSLGVTTKFHSFPNVYHELSKTELDILKLWILTKLPGEMEKQK
inactive: SARS-CoV-2 E 0.0377 | SARS-CoV-2 M 0.0609 | SARS-CoV-2 NSP10 = 0.0237 | SARS-CoV-2 NSP12 = -0.096 | SARS-CoV-2 NSP13 = -0.0855 | SARS-CoV-2 NSP16 = -0.133 | SARS-CoV-2 NSP2 = -0.275 | SARS-CoV-2 NSP5 = 0.0295 | SARS-CoV-2 NSP6 = -0.352 | SARS-CoV-2 NSP8 = -0.00463 | SARS-CoV-2 ORF10 = 0.0212 | SARS-CoV-2 ORF3B -0.0628 | SARS-CoV-2 ORF6 = 0.0488 | SARS-CoV-2 ORF7A -0.054 | SARS-CoV-2 ORF7B -0.0838 | SARS-CoV-2 ORF8 = -0.0317 | SARS-CoV-2 ORF9B 0.0545 | [1] -0.236 | SARS-CoV-2 S 0.108

B2: TEX28, O15482 (protein)
chain: MVLKAEHTRSPSATLPSNVPSCRSLSSSEDGPSGPSSLADGGLAHNLQDSVRHRILYLSEQLRVEKASRDGNTVSYLKLVSKADRHQVPHIQQAFEKVNQRASATIAQIEHRLHQCHQQLQELEEGCRPEGLLLMAESDPANCEPPSEKALLSEPPEPGGEDGPVNLPHASRPFILESRFQSLQQGTCLETEDVAQQQNLLLQKVKAELEEAKRFHISLQESYHSLKERSLTDLQLLLESLQEEKCRQALMEEQVNGRLQGQLNEIYNLKHNLACSEERMAYLSYERAKEIWEITETFKSRISKLEMLQQVTQLEAAEHLQSRPPQMLFKFLSPRLSLATVLLVFVSTLCACPSSLISSRLCTCTMLMLIGLGVLAWQRWRAIPATDWQEWVPSRCRLYSKDSGPPADGP
inactive: SARS-CoV-2 E -0.0664 | SARS-CoV-2 M 0.063 | SARS-CoV-2 N -0.00709 | SARS-CoV-2 NSP1 = -0.0344 | SARS-CoV-2 NSP10 = 0.00372 | SARS-CoV-2 NSP12 = 0.0359 | SARS-CoV-2 NSP13 = 0.0117 | SARS-CoV-2 NSP14 = 0.0653 | SARS-CoV-2 NSP15 = -0.0139 | SARS-CoV-2 NSP16 = -0.14 | SARS-CoV-2 NSP2 = -0.0709 | SARS-CoV-2 NSP4 = 0.168 | SARS-CoV-2 NSP5 = 0.0698 | SARS-CoV-2 NSP6 = -2e-05 | SARS-CoV-2 NSP7 = -0.0655 | SARS-CoV-2 NSP8 = -0.0077 | SARS-CoV-2 NSP9 = 0.084 | SARS-CoV-2 ORF10 = -0.056 | SARS-CoV-2 ORF3A 0.111 | SARS-CoV-2 ORF3B 0.0369 | SARS-CoV-2 ORF6 = 0.029 | SARS-CoV-2 ORF7A 0.106 | SARS-CoV-2 ORF7B -0.0132 | SARS-CoV-2 ORF8 = -0.00436 | SARS-CoV-2 ORF9B -0.0357 | [1] 0.0506 | SARS-CoV-2 S 0.0263

B3: AGT, P01019 (protein)
chain: MAPAGVSLRATILCLLAWAGLAAGDRVYIHPFHLVIHNESTCEQLAKANAGKPKDPTFIPAPIQAKTSPVDEKALQDQLVLVAAKLDTEDKLRAAMVGMLANFLGFRIYGMHSELWGVVHGATVLSPTAVFGTLASLYLGALDHTADRLQAILGVPWKDKNCTSRLDAHKVLSALQAVQGLLVAQGRADSQAQLLLSTVVGVFTAPGLHLKQPFVQGLALYTPVVLPRSLDFTELDVAAEKIDRFMQAVTGWKTGCSLMGASVDSTLAFNTYVHFQGKMKGFSLLAEPQEFWVDNSTSVSVPMLSGMGTFQHWSDIQDNFSVTQVPFTESACLLLIQPHYASDLDKVEGLTFQQNSLNWMKKLSPRTIHLTMPQLVLQGSYDLQDLLAQAELPAILHTELNLQKLSNDRIRVGEVLNSIFFELEADEREPTESTQQLNKPEVLEVTLNRPFLFAVYDQSATALHFLGRVANPLSTA
inactive: SARS-CoV-2 E -0.00688 | SARS-CoV-2 M 0.00242 | SARS-CoV-2 N 0.0598 | SARS-CoV-2 NSP1 = -0.104 | SARS-CoV-2 NSP10 = -0.0479 | SARS-CoV-2 NSP12 = -0.0154 | SARS-CoV-2 NSP13 = 0.0267 | SARS-CoV-2 NSP15 = 0.0556 | SARS-CoV-2 NSP16 = -0.0861 | SARS-CoV-2 NSP2 = -0.217 | SARS-CoV-2 NSP4 = -0.0352 | SARS-CoV-2 NSP5 = 0.00482 | SARS-CoV-2 NSP6 = 0.0154 | SARS-CoV-2 NSP7 = -0.138 | SARS-CoV-2 NSP8 = -0.101 | SARS-CoV-2 NSP9 = -0.419 | SARS-CoV-2 ORF10 = -0.00936 | SARS-CoV-2 ORF3A 0.0571 | SARS-CoV-2 ORF3B -0.0746 | SARS-CoV-2 ORF6 = -0.00087 | SARS-CoV-2 ORF7A -0.138 | SARS-CoV-2 ORF7B -0.0125 | SARS-CoV-2 ORF8 = -0.000923 | SARS-CoV-2 ORF9B -0.0255 | [1] -0.0223 | SARS-CoV-2 S -0.0231
